# According to the supplement of paper PMC12217912:
# This is one part of the list. Sequences were assembled here from the parent chain. Inactive controls read about 0.05.
# B1: TEV protease; numbered along this chain (parent)
# chain: MGESLFKGPRDYNPISSSICHLTNESDGHTTSLYGIGFGPFIITNKHLFRRNNGTLVVQSLHGVFKVKDTTTLQQHLVDGRDMIIIRMPKDFPPFPQKLKFREPQREERICLVTTNFQTKSMSSMVSDTSCTFPSGDGIFWKHWIQTKDGQCGSPLVSTRDGFIVGIHSASNFTNTNNYFTSVPKNFMELLTNQEAQQWVSGWRLNADSVLWGGHKVFMVKPEEPFQPVKEATQL
# Variants of: B1
# Test: raw area under fraction-flipped curve 0-4 h after induction (AUC4h, not background-subtracted), DNA-recorder readout of cleavage of the substrate (dimensionless); higher = more cleavage of the substrate by the protease variant
# Settings: temperature: 34 °C; time window: 0-4 h after rhamnose induction
# Protocol: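 In vivo DNA recorder in E. coli TOP10(DE3) ΔrhaA at 34 °C. Each TEVp single-site mutant (parent TEVp 0) is paired with a single-site variant of the 7-mer TEVs (canonical ENLYFQ|S). The substrate sits between flexible linkers in a Bxb1-sfGFP-TEVs-SsrA fusion, so cleavage stabilises Bxb1 and speeds flipping of a recombination array, read by NGS. The value is the raw area under the fraction-flipped curve over 0-4 h after rhamnose induction (AUC4h), with ≥20 reads per time point. It is not background-subtracted; inactive controls average about 0.047.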
# 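Also: Bxb1 expression induced with 0.2% (w/v) L-rhamnose at OD600 near 0.5, cultures sampled hourly, flipped fraction per protease–substrate barcode pair counted by paired-end Illumina sequencing.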
Variant,area with substrate ANLYFQS,area with substrate CNLYFQS,area with substrate FNLYFQS,area with substrate GNLYFQS,area with substrate INLYFQS,area with substrate KNLYFQS,area with substrate LNLYFQS,area with substrate MNLYFQS,area with substrate WNLYFQS,area with substrate HNLYFQS,area with substrate PNLYFQS,area with substrate RNLYFQS,area with substrate SNLYFQS,area with substrate TNLYFQS,area with substrate DNLYFQS,area with substrate VNLYFQS,area with substrate YNLYFQS,area with substrate QNLYFQS,area with substrate NNLYFQS
H76I,0.0672,0.0707,0.049,0.0546,0.0537,0.0684,0.0583,0.0611,0.0603,–,–,–,–,–,–,–,–,–,–
I84C,0.0524,0.0592,–,–,0.0642,0.0582,0.0739,0.0695,0.0557,0.0521,0.0763,0.0621,0.0625,0.0913,–,–,–,–,–
K100S,0.0747,–,0.0644,0.104,0.0622,0.0567,0.0737,–,–,0.0747,–,–,–,0.0685,0.0678,0.0574,0.0644,–,–
K98E,0.0779,0.0873,0.0454,0.071,0.0549,–,0.0612,–,–,–,–,–,0.056,–,–,–,–,0.0512,–
R109H,0.062,0.0655,–,–,–,0.0962,0.0665,–,0.0295,–,0.0614,–,0.066,0.0724,–,0.0395,0.0598,–,0.0731
E108S,0.0455,0.0457,–,–,–,–,0.0489,0.0483,–,0.0546,–,–,–,–,–,–,–,–,0.0579
E108V,0.0586,0.0711,0.0611,0.0497,0.0492,0.0532,0.0606,–,0.0547,0.0573,0.0587,–,0.0569,0.0538,–,–,0.0554,–,0.0604
E108I,0.0584,0.0515,–,0.0509,0.0631,0.0872,0.0509,0.0537,0.0515,0.061,0.0509,–,0.0485,0.0582,–,–,0.048,–,–
F95G,0.0537,–,–,0.0207,–,0.0427,0.0581,0.0507,0.0692,0.0576,–,0.0571,0.0415,0.0472,0.0576,–,–,–,0.0562
F95W,0.0763,0.0649,0.0622,–,–,0.0975,0.0589,0.0527,0.0722,0.0588,–,–,0.0648,0.0895,–,–,0.0522,–,–
F95V,0.04,0.0597,–,–,0.0308,0.0445,0.0603,–,0.0542,0.0417,0.0513,–,–,0.0583,–,–,–,–,–
Q105G,0.0644,0.0642,0.0721,0.0543,0.0609,–,0.065,0.0611,0.0489,0.0582,0.0606,–,0.0658,0.0539,–,0.0746,0.0618,0.0682,0.071
Q105A,0.066,0.0722,0.0629,0.0755,–,–,0.0738,0.0646,0.0615,0.0074,–,–,0.0691,0.0912,–,–,–,–,0.0626
V113A,0.0645,–,–,–,–,0.0736,0.061,0.0712,0.0611,0.0655,0.0705,–,0.0647,0.0682,0.0799,0.0639,0.0613,0.0637,0.0626
V113T,0.0479,0.0652,–,–,0.057,0.0544,0.0559,–,0.0358,0.0541,0.069,0.0804,–,0.0584,–,–,0.0525,–,0.0932
I86K,0.0248,0.0144,–,–,–,–,–,0.0408,–,0.0293,–,0.028,0.037,0.0368,–,–,0.0419,–,–
I86E,0.0367,0.0352,0.0274,0.0438,0.0288,0.0564,0.031,0.0227,–,0.0301,–,–,–,–,–,–,0.0229,–,0.04
R81D,0.0463,0.0686,–,–,–,0.0451,0.0551,0.0512,–,0.0594,0.0591,–,–,0.077,–,0.0288,–,–,–
R81L,0.0571,0.0486,0.0648,–,0.0476,–,–,–,0.0442,0.053,0.053,0.0627,0.0574,–,–,–,0.056,–,0.062
R81E,0.0534,–,0.0526,–,–,0.0531,–,0.0737,0.0528,0.056,0.0529,–,–,0.0509,0.0484,–,0.0545,0.0541,–
F92A,0.0879,0.0617,0.0585,0.0771,–,0.0711,–,0.0676,0.0653,0.0778,0.0696,–,0.0611,0.0464,–,–,0.0709,–,–
C111I,0.061,0.0836,–,0.0489,0.0614,–,0.0681,0.0626,0.0569,0.0583,0.0633,–,–,0.0551,–,–,0.0648,–,0.0717
C111N,0.0696,0.0461,–,–,–,0.0732,–,–,–,0.0688,0.0685,–,–,0.0347,–,–,0.0617,–,0.068
R106H,0.0663,0.0743,0.0677,0.0624,0.0614,0.0634,0.0427,0.0494,0.0634,0.0289,0.0744,–,–,0.0608,–,–,–,–,0.0595
R106W,0.0733,0.0678,0.0665,0.0559,0.0641,0.0672,0.0719,0.0648,0.0715,0.056,0.0713,–,0.0921,0.0653,–,0.0681,0.0543,0.0951,0.075
E107K,0.0843,0.0687,0.0492,0.0673,0.052,0.0644,0.0736,0.0691,0.0722,0.074,0.0792,–,–,0.0839,–,–,0.0608,–,0.0837
E107S,0.0551,–,0.0681,–,–,0.0642,–,0.0629,0.059,0.0604,0.0554,–,0.075,0.0597,0.0822,0.0706,0.0596,–,0.0652
E107N,0.0645,–,0.0595,0.0865,0.0548,–,–,–,0.0638,0.0548,0.0649,–,0.0773,0.0641,0.0708,–,0.0585,–,–
E107M,0.0371,–,0.0555,–,–,0.0623,0.076,0.0625,0.0534,0.055,–,–,0.0705,0.0747,0.0797,–,–,–,–
E103W,0.0569,0.0525,0.0585,0.0646,–,0.0648,0.0399,0.0505,0.0521,0.0671,0.0535,0.104,0.0595,0.0632,–,0.0576,–,–,0.053
